# Test results taken from PMC6919601, “Identification of Plasmodium dipeptidyl aminopeptidase allosteric inhibitors by high throughput screening” (PLoS ONE, 2019).
# About 230 (0.21%) of roughly 110,000 compounds showed an effect of 50% or more. Some of the results follow.
# Target: DPAP1 (Plasmodium falciparum, UniProt Q8IIJ9)
# Test: primary screen, percent inhibition; read by cleavage of a fluorogenic dipeptide substrate; higher = more effect of the substance
# Set-up: species or system P. falciparum D10 trophozoite lysates; single well
# 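Further: 30 min substrate incubation versus DMSO and 10 µM JCP410 controls.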
# Chain of DPAP1 (Q8IIJ9 whole entry, looked up): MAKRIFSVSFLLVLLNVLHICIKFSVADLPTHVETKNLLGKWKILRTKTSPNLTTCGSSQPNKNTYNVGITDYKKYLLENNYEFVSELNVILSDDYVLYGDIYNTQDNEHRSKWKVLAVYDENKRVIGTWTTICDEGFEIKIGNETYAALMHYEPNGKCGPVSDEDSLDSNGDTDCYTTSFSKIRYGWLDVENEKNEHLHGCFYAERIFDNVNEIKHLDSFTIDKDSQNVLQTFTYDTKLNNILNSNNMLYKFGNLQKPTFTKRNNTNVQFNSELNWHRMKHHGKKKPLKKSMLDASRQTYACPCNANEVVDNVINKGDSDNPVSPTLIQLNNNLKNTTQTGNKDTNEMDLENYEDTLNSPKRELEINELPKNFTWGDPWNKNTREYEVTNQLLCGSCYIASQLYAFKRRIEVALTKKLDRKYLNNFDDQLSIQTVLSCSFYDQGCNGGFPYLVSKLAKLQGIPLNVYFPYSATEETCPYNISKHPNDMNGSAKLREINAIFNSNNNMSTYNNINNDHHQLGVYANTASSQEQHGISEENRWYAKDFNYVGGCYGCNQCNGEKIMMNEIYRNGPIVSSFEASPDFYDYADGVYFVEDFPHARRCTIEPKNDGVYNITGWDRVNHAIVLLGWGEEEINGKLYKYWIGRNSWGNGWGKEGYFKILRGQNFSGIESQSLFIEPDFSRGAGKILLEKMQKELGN
row,SMILES,% Inhibition @ 10 uM [%]
1,CC(=O)Nc1nn2c(-c3ccco3)nnc2s1,7.67
2,Cc1ccc(-[n+]2c(=O)c(-c3ccccc3)c(O)n3nc(C)ccc32)cc1,9.48
3,CCNS(=O)(=O)c1ccc(NC(=O)Nc2cccc3ccccc23)cc1,-3.87
4,CN(Cc1ccccc1)C(=O)CN(Cc1ccccc1)S(C)(=O)=O,-0.185
5,c1ccc(Cn2c(C3CCCO3)nc3ccccc32)cc1 (stereo not shown),-1.22
6,Cc1ccc(CCS(=O)(=O)c2ccc(C(C)(C)C)cc2)cn1,1.9
7,COc1ccc(C2=N/C(=C/c3ccccc3C(F)(F)F)C(=O)O2)cc1Br,-1.65
8,CN1C=CC(=Cc2sc3ccccc3[n+]2C)C=C1,-5
9,CCc1n(CC(O)COc2ccccc2OC)c2ccccc2[n+]1CC (stereo not shown),-3.41
10,O=C(Nc1ccccc1O)c1cccc(S(=O)(=O)N2CCOCC2)c1,-8.36
11,CCC(C)NC(=O)c1onc(C)c1Cl (stereo not shown),-5.25
12,O=C(N1CC=C(c2ccccc2)CC1)C1(S(=O)(=O)c2ccc(Cl)cc2)CC1,-0.0508
13,COC(=O)c1c(NC(=O)C2=C(C)N=C3CCCC(O)=C3C2c2ccccc2F)sc2c1CCCC2 (stereo not shown),7.68
14,CCC(C)NC(=O)c1ccc(CS(=O)Cc2ccc(C)cc2)o1 (stereo not shown),3.24
15,CCOc1ccc2nc(C)sc2c1,2.13
16,C=CCN1C(=O)/C(=C\c2ccc(Cl)cc2)C(C(=O)OCC)=C1C,-2.43
17,CC(=O)N1c2ccccc2C(C)(c2ccc(Br)cc2)CC1(C)C (stereo not shown),2.13
18,C=C(C)Cn1c(CCCNC(=O)c2cccc(C)c2)nc2ccccc21,3.49
19,C=CCn1c(SCC(N)=O)nc2sc3c(c2c1=O)CCCC3,5.59
20,OC(c1ccccc1)(c1ccccc1)C1CCCN1 (stereo not shown),-3.6
21,O=C1CCCc2nn(-c3ccccc3)nc21,2.92
22,CC1=C(C(=O)N2CCN(C(=O)c3ccco3)CC2)C2(CCN(Cc3ccccc3)CC2)OC1=O,3.87

row,SMILES,% Inhibition @ 10 uM [%]
1,OC(CN1CCOCC1)c1csc2ccccc12 (stereo not shown),-4.18
2,Cc1ccc(Cl)cc1-n1nnc(-c2nc(-c3ccc4c(c3)OCO4)no2)c1N,2.45
3,CCN(CC)CCNC(=O)Cn1ncc2c(C)n(Cc3ccccc3F)c(C)c2c1=O,2.84
4,CCCOc1ccc(C2C3=C(O)CCCC3=NC(C)=C2C(=O)Nc2ccccc2OC)cc1OC (stereo not shown),3.99
5,COc1cccc(N(CC(=O)NCc2ccccc2)S(=O)(=O)c2ccc(C)cc2)c1,-6.75
6,CCOC(=O)c1cnc2nc(-c3ccc(OC)cc3)nn2c1O,-0.671
7,CCOc1ccc(-c2c(C)[n+]([O-])c3c([n+]2[O-])CCCCC3)cc1,0.147
8,Cc1ccccc1-c1noc(CCC(=O)NCC2CCCO2)n1 (stereo not shown),-3.12
9,CSc1nc(Oc2cccc3ccccc23)cc(-n2ncc(C#N)c2N)n1,-5.79
10,Oc1cc(O)c(C(O)(C(F)(F)F)C(F)(F)F)cc1C(O)(C(F)(F)F)C(F)(F)F,3.47
11,COc1ccc(C2Nc3ccccc3C(=O)N2c2ccccc2)cc1 (stereo not shown),-3.05
12,O=C(/C=C/c1cccc([N+](=O)[O-])c1)Nc1ccc(Cl)cc1,6.14
13,O=C(CSCc1cnn(-c2ccccc2)c1-n1cccc1)NCc1ccccc1Cl,-5.15
14,COc1ccc2cc(-c3nc(-c4cccnc4)no3)c(=O)oc2c1,-4.32
15,CC(=O)c1cccc(/N=C(\C)C2=C(O)c3ccccc3C2=O)c1,6.97
16,Cc1cc(/C=C2\SC(N)=NC2=O)c(C)n1-c1ccccc1,-4.24
17,CC(C)NC(=O)CSc1cn(CC(=O)N(C(C)C)C(C)C)c2ccccc12,7.99
18,CCO/C(O)=C1/C(C)=Nc2ncnn2C1c1ccccc1Cl (stereo not shown),-5.19
19,Cc1cc(C)c2c3c(sc2n1)C(c1ccccc1Cl)C(C#N)=C(N)O3 (stereo not shown),-0.305
20,Cc1nnc2c3ccccc3c(N3CCCC3)nn12,2.02
21,Cc1ccc(S(=O)(=O)Nc2ccc(Br)cc2C)cc1,-3.35
22,O=C(NC1CCN(Cc2ccccc2)CC1)C1CCN(c2nnc(-n3cccc3)s2)CC1,-2.25

row,SMILES,% Inhibition @ 10 uM [%]
1,N#CCNC(=O)[C@H](CC1CCCCC1)NC(=O)Nc1ccc2ccccc2c1,-1.83
2,CC(C)c1ccc(/C=C/C(=O)N2CCN(C)CC2)cc1,1.63
3,COc1ccc(-c2c(C)nn3c(O)cc(C)nc23)cc1,-3.44
4,O=C(Nn1cnnc1)c1sc2ccccc2c1Cl,-0.0626
5,COc1ccc(C(=O)N2CCN(C(=O)CC(C)C)CC2)cc1OC,-5.26
6,O=[N+]([O-])c1ccccc1S(=O)(=O)Nc1ccc(Cl)cc1,0.962
7,C=CCS(=O)(=O)C[C@H](NC(=O)OC)C(=O)N[C@@H](CCCC)C(=O)c1nc2ccccc2o1,7.14
8,CCc1ccc2ncc(S(=O)(=O)c3ccc(OC)cc3)c(N3CCC4(CC3)OCCO4)c2c1,-0.0881
9,Clc1ccc(-c2cnc3ccccc3n2)cc1Cl,-2.03
10,COc1ccc(C2=NN(CC(=O)NCCN(C)C)C(=O)CC2)cc1,1.62
11,COc1ccc(CCNC(=O)CN2C(=O)c3cccc4cccc(c34)C2=O)cc1OC,4.03
12,Cc1cc(Cl)ccc1OCC(=O)Nc1cccc(Cl)c1,-3.04
13,C=CCNC(=S)N(Cc1ccccc1)Cc1ccccc1,4.16
14,CCCn1c(C(O)c2ccc(N(C)C)cc2)nc2ccccc21 (stereo not shown),-0.712
15,Cc1ccc(C(=O)NC(c2ccccc2)c2ccccc2)o1,-8.02
16,O=C(Nc1ccccc1Cl)c1ccc(OC(F)F)cc1,-5.31
17,COc1ccc(-c2noc(-c3nnn(-c4cccc(Cl)c4C)c3N)n2)cc1,-4.5
18,CCOc1ccc(-n2cc(-c3ccccc3)c3c(NCCN4CCOCC4)ncnc32)cc1,-0.417
19,CCCc1ccc(OCc2ccc(C(=O)OC)cc2)c(OC)c1,8.07
20,COc1ccc(CCNC(=O)C(C)n2ccc3cc(S(=O)(=O)N4CCCC4)ccc32)c(OC)c1 (stereo not shown),5.78
